Reference: the supplement of paper PMC10126150
Sequences with one replicate were seen in a single cluster, so their values are uncertain.

Test system: ATP
Assay: switch fluorescence ratio, 500 uM ATP over buffer (Cy3 cluster intensity, sum of 5 cycles each) (fold (ratio)); higher = stronger signal-on switching upon ATP binding; sequences stand for … in TCGTCGGCAGCGTCAGATGTGTATAAGAGACAGTTTTTTTTTTTTTTTTTTTTTTTTT…TC
Details: aptamer strand: ATP DNA aptamer (quencher-CACCTGGGGGAGTATTGCGGAGGAAGG + anchor), 100 nM annealed; ATP concentration: 500 uM; one replicate
Summary of the method: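 Values give the fluorescence ratio for each switch-domain sequence, averaged from per-cluster ratios of summed target-cycle to summed buffer-cycle Cy3 intensity. The Cy3-labelled switching-strand clusters sat on a modified Illumina MiSeq flow-cell, were annealed to 100 nM quencher-labelled ATP aptamer, and were imaged in selection buffer, then after 15 min with 500 uM ATP at 22 °C. Five cycles ran with NaOH stripping and re-annealing between them, and clusters outside 100-1000 RFU were excluded.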
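Also: ATP exposure 15 min at 22 °C before imaging.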

| Sequence | switch fluorescence ratio |
| --- | --- |
| GACACGCAAC | 2.76 |
| TCGCAGGTTT | 1.09 |
| CATATTGCAC | 1.03 |
| GTTACACAAA | 1.03 |
| TGTTGATGGG | 0.992 |
| TTGTATCTCA | 0.955 |
| TTCAGCCCGT | 1.01 |
| GCGAGATAGG | 1.01 |
| GGCGGCGGCA | 0.996 |
| TAGGGTAATC | 1.13 |
| GCTTAGTTCT | 0.979 |
| TGGGGTACCA | 1.01 |
| AGTAATAGTG | 1.06 |
| TCATCAGTCG | 1.01 |
| CAGCCAGGC | 1.02 |
| TACTTATACT | 1.08 |
| GGGTAATGTC | 0.956 |
| CGAAGTTTC | 1.01 |
| AGTTGTAGAC | 1.06 |
| GTCATCCGTC | 1.02 |
| CTTAATTTGG | 0.98 |
| CGTAGAATTG | 0.957 |
| AAGAGCTTTT | 1.12 |

| Sequence | switch fluorescence ratio |
| --- | --- |
| GGTGCGAAGT | 0.983 |
| CGTAAAGTTT | 0.97 |
| TCCATCATCA | 0.987 |
| ACGGCACGGA | 1.07 |
| CCGCACTTTT | 2.05 |
| GCCCTGGAAG | 1.03 |
| AGGCGGATAC | 2.32 |
| ATAAATCCTG | 0.999 |
| TCCTGAGG | 0.995 |
| ACCTCGAAA | 1.24 |
| GATGCCGAGG | 0.978 |
| GTTATGTAGT | 1.01 |
| CCCATGGCGG | 1.04 |
| ACCCGGTAA | 1.01 |
| TGTTCCTTCT | 1.03 |
| TGGCCGCGGT | 1.1 |
| TCAGTTGGAG | 0.972 |
| GCTCAATGTT | 1.02 |
| AAGTGCCCAC | 1.01 |
| ACGGCTGAGG | 0.973 |
| CCTTTCTGTT | 1.06 |
| TACGTCGACT | 1.04 |
| CACAACTGAT | 1.03 |

| Sequence | switch fluorescence ratio |
| --- | --- |
| GTCTCCGGTA | 1.1 |
| TTCGACAGTT | 1.01 |
| ATCGTGACAT | 0.992 |
| TGCCGAAACT | 1.03 |
| ATGATTCTTG | 1.04 |
| TTGGTGGGCG | 0.94 |
| GTTGCATACG | 1.01 |
| GACATACAGC | 1.32 |
| GCGGTCGAC | 0.986 |
| GGCATCTTAA | 0.991 |
| TGACATTCCT | 1.43 |
| GACGATAGC | 1.13 |
| TGGACGCGCA | 0.978 |
| ACGGCACGGT | 1.11 |
| TCTCGGCTTG | 0.986 |
| CACGCGGTCG | 1.03 |
| AGACCTTTTT | 1.02 |
| TATAGGGCTG | 1.06 |
| GCTATGACGG | 1.04 |
| AGAGGGATCG | 1.01 |
| GGGACTCCGT | 1.04 |
| GGGTAAAATA | 0.991 |
| GGTACTAGGA | 1.01 |

| Sequence | switch fluorescence ratio |
| --- | --- |
| ATTAGCAGTA | 1.02 |
| GGTAGTGATC | 1 |
| CGAATCACGC | 1.06 |
| GCCACTTTCT | 0.998 |
| TAGAAGAAAT | 0.952 |
| CGTTGGAGAC | 1.02 |
| TAGGTTACAG | 1.02 |
| CAAAGGCGAG | 0.989 |
| TACGTAGCTT | 2.18 |
| TGAGCCGTTA | 0.996 |
| AATGCAGGGG | 1.11 |
| CGCCTCATA | 1.08 |
| CTGACTATCA | 0.99 |
| ATTTCGTTCT | 0.973 |
| AGTTATCGGT | 0.999 |
| ATAGTCGAAC | 1.01 |
| GGCGCACGAT | 1.04 |
| GGCAGTTGGT | 1.01 |
| ATTTGGTTAT | 0.993 |
| GGTCTATGTT | 0.967 |
| TGTATGATTT | 1.01 |
| CAGCTTTATC | 1.09 |
| GTTCACCACA | 1.01 |

| Sequence | switch fluorescence ratio |
| --- | --- |
| CAATTTGAAT | 0.99 |
| AAGGAGAGCG | 1.05 |
| GTCTAGTGAA | 1.09 |
| TTGCTCAGAG | 1.03 |
| CGCTGCGGGA | 1.08 |
| CAGATTTGGT | 1.03 |
| GGTTTTACGA | 1 |
| TTAAATGCAT | 1 |
| TAGAAAAGA | 1.02 |
| AGTTGGTTTA | 1.04 |
| AATTCGCCGC | 1.12 |
| AATGTAGATT | 0.958 |
| GCGCAGCACT | 1.03 |
| TCTCGCAGCT | 1.51 |
| AACCAAAGCT | 1.27 |
| AGTGGGTGGA | 1.03 |
| CGGTTAGTAA | 0.995 |
| CACAATAAGT | 1.03 |
| GCCGGTAAGT | 0.998 |
| GGTACGAGAT | 1.02 |
| CTGTCCTGAA | 1 |
| TCAGAGGAGC | 1.06 |
| GCGTCAGGTC | 1.05 |

| Sequence | switch fluorescence ratio |
| --- | --- |
| GACCTGTCAG | 0.998 |
| ATGTAAAGAA | 1.03 |
| CAACATCAG | 1.02 |
| TTCACGAAGT | 1.04 |
| ATGGAGAAAC | 0.999 |
| ATTCTCTTCG | 1.06 |
| ATTCTATCAA | 0.975 |
| CCAAGCGTT | 1.14 |
| ATCTCGCTTC | 1.09 |
| CCCTTGAATC | 1 |
| TCATCCTGTT | 0.997 |
| ACAGGGCGG | 1.02 |
| TTGGAAGGCT | 1.13 |
| GCATGCCCGC | 1.01 |
| ATAAAGTTTG | 0.945 |
| TAAGTATTTG | 1.01 |
| TATGCCGGTG | 1.03 |
| GATCTAATTT | 1.02 |
| GCGTTTTGA | 1.07 |
| AGGTGACTTG | 1.01 |
| TCGTTAAGAT | 0.976 |
| CGCCAATTGT | 1.04 |
| TCCTGGCGTG | 1.03 |

| Sequence | switch fluorescence ratio |
| --- | --- |
| CTGTGATATC | 1.19 |
| TCGCTTTTCC | 1.09 |
| AAAATCAGTG | 1 |
| TAGAAGAGCT | 1 |
| AGGGAGTCAT | 0.973 |
| GTCAAATTAT | 1 |
| TTTTACCGTG | 0.962 |
| GCACCACCGG | 1 |
| ATCACTCGCA | 1.08 |
| CCATGCTGGC | 1.09 |
| GCAATCTGTT | 1.06 |
| GGACCTGGCC | 0.998 |
| CAGGACTTT | 0.959 |
| AAACCGACAG | 1.16 |
| TATGTGACCG | 1.16 |
| CACAGTGCGC | 1.07 |
| TATATGACCG | 1.02 |
| AACCAGGCGA | 1.18 |
| GGTCAGAGT | 0.976 |
